Measurements: PubChem BioAssay (NCATS)
The shares of active, inactive and inconclusive entries below differ from those in the screen. Potencies of inconclusive entries are left out as doubtful fits. For part of these data: A note “side channel” means that the fit belongs to a control or component signal, not to the main read-out. The source made the active and inactive calls. Unless noted, calls come from the whole dose curve; as a rule, active = well fitted inhibition curve with a large enough effect; inconclusive = small, poorly fitted or top-dose-only effect; inactive = no such curve, though single readings can be large or run the other way.

Molecular target: Cytochrome P450 3A4 (Homo sapiens) (UniProt P08684)
UniProt P08684, sequence (P08684 whole entry, looked up): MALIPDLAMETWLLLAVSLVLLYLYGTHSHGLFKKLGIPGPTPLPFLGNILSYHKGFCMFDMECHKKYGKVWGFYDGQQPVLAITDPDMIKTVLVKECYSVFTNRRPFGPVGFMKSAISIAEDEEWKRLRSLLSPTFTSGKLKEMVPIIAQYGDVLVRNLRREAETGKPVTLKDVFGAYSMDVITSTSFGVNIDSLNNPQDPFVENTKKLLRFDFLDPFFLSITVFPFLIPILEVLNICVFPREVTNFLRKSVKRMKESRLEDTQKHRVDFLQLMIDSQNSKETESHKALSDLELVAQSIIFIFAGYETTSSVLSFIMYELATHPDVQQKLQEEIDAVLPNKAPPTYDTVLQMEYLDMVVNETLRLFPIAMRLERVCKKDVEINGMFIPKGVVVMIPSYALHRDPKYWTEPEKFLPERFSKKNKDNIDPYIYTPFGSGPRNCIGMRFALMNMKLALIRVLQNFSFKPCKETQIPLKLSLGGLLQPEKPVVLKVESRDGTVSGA
Test: qHTS Assay for Inhibitors and Substrates of Cytochrome P450 3A4 (AID 884); note: nearly all actives have a fitted effect of over 50% in size
Settings: recombinant CYP3A4, Luciferin-PPXE luminescence; series mostly up to 57.1 µM
Summary of the method: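 20 nM human CYP3A4 with 25 uM Luciferin-PPXE (at KM) in 200 mM KPO4, preincubated 10 min with compound; NADPH regeneration started a 60 min RT reaction. Luciferin detected by luminescence, normalized to 57 uM ketoconazole as full inhibition.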
Potency is the fitted concentration of half-maximal effect; tags give direction and shape of the fitted curve or compound fluorescence and quenching.

Structure (SMILES) | Potency
COc1ccc(CNc2ncnc3ccc(-c4cccc(NS(C)(=O)=O)c4)cc23)c(OC)c1 | active: 2 µM
CCNc1ncc2nc(-c3cc(F)cc(F)c3)c(=O)n(CCOC)c2n1 | inconclusive [inhibitor, partial curve]
CN(C)c1ncc2nc(-c3cccs3)c(=O)n(Cc3cccs3)c2n1 | inconclusive [inhibitor, full curve, poor fit]

Molecular target: Cytochrome P450 2C19 (Homo sapiens) (UniProt P33261)
UniProt P33261, sequence (P33261 whole entry, looked up): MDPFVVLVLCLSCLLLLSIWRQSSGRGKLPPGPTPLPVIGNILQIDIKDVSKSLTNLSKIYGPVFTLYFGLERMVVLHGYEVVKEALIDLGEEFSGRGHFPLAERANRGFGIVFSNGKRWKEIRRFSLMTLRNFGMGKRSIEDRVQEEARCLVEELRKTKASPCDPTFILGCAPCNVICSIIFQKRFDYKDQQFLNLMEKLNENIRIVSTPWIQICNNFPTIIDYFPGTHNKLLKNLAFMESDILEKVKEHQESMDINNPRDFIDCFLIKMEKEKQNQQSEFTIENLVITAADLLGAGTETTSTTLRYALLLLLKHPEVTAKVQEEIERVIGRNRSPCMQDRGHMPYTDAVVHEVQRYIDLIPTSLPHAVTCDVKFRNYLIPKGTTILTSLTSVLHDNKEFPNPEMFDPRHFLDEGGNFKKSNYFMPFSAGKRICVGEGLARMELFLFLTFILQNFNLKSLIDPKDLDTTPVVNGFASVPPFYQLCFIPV
Test: qHTS Assay for Inhibitors and Substrates of Cytochrome P450 2C19 (AID 899); note: nearly all actives have a fitted effect of over 60% in size
Settings: recombinant CYP2C19, luciferin-H EGE luminescence; series mostly up to 11.4 µM
Summary of the method: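 Human CYP2C19 (5nM) with Luciferin-H EGE at 10uM (its KM) in 50mM KPO4 was preincubated with compound for 10 min at 37C. NADPH regeneration started a 60 min 37C reaction. Luciferin was read by luminescence, normalized to 57uM ketoconazole.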

Structure (SMILES) | Potency
Cc1noc(C)c1-c1ccc2ncnc(NCc3cccs3)c2c1 | active: 1.26 µM
FC(F)(F)c1ccccc1-c1ccc2ncnc(NC3CC3)c2c1 | active: 2 µM
Cc1noc(C)c1-c1ccc2ncnc(NCc3cccnc3)c2c1 | active: 0.02 µM
c1cncc(-c2nc(NCc3cccs3)c3ccccc3n2)c1 | inconclusive [inhibitor, full curve]

Tested on: not listed separately
Test: qHTS Assay for Identification of Small Molecule Agonists for Hypoxia Response Element Signaling Pathway (AID 914; active = well fitted activation curve with a large enough effect in the signal ratio, with a control signal flat, not every such curve was filed as active; inconclusive = small, poorly fitted or top-dose-only effect, or effect the other way, or a change in a side signal; the % refers to the signal ratio; for activation: top concentration of the series differs between compounds; % of control where 0% means no effect)
Settings: ME-180 (cervical carcinoma) HRE-bla reporter, beta-lactamase ratio, CoCl2, 17 h; activation: stronger effect = higher value
Summary of the method: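 qHTS titration; ME-180 HRE-bla cells; EC50 CoCl2 co-treatment, 17 h at 37 degrees Celsius; CCF4 dye, ex 405nm, em 460nm and 530nm; %Activity from ratio; AC50.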

Structure (SMILES) | Potency | activation
COc1ccc(CNc2ncnc3ccc(-c4cccc(NS(C)(=O)=O)c4)cc23)c(OC)c1 | inconclusive [inhibitor, partial curve] | –
CCNc1ncc2nc(-c3cc(F)cc(F)c3)c(=O)n(CCOC)c2n1 | inconclusive [activator, single point] | –
COc1cccc(-c2nccc(NCCc3c[nH]c4ccc(OC)cc34)n2)c1 | inconclusive [inhibitor, partial curve] | –
Cc1ccccc1-c1ccc2ncnc(NCc3cccnc3)c2c1 | – | inconclusive: 35.6%
COc1cccc(-c2ccc3ncnc(N4CCOCC4)c3c2)c1 | inconclusive [inhibitor, single point] | –
COc1ccc(-n2c(=O)cnc3cnc(N(C)C)nc32)cc1 | inconclusive [inhibitor, single point] | –
Cc1noc(C)c1-c1ccc2ncnc(NCc3cccs3)c2c1 | inconclusive [activator, single point] | –
CC(=O)NCCNc1ncnc2ccc(-c3ccccc3Cl)cc12 | inconclusive [activator, single point] | –
O=c1cnc2cnc(Oc3cccc(Cl)c3)nc2n1CCc1ccccc1 | inconclusive [inhibitor, partial curve] | –
Cc1noc(C)c1-c1ccc2ncnc(NCc3cccnc3)c2c1 | active: 3.16 µM | –
CN(C)c1ncc2nc(-c3cccs3)c(=O)n(Cc3cccs3)c2n1 | inconclusive [fluorescent, side channel, single point] | –
c1csc(CNc2ncncc2-c2ccoc2)c1 | – | inactive: 2.26%
CS(=O)(=O)Nc1cccc(-c2ccc3ncnc(NCCN4CCOCC4)c3c2)c1 | – | inconclusive: -25.9%
COc1ccccc1CNc1cc(-c2c(C)noc2C)ncn1 | – | inconclusive: 24.7%
